Assay results reported in the BET-seq Pho4 binding data (Le et al. 2018).
The list shows a part of the results. Values were computed here from the reads of four pooled replicates and scatter widely.

target: T1, Pho4 (S. cerevisiae) (UniProt P07270); assay: relative binding free energy (BET-seq); higher = weaker binding; conditions: reference: library average
T1 sequence: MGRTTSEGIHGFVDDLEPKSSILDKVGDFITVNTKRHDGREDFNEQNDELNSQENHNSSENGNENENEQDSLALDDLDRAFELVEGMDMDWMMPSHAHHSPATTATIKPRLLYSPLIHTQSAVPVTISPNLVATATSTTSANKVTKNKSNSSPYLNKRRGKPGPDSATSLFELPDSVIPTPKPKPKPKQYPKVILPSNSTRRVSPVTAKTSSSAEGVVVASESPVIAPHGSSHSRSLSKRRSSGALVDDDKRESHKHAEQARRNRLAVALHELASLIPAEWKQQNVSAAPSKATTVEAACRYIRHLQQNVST

| Sequence | relative binding free energy [kJ/mol] |
| --- | --- |
| ATTAGCACGTGTAGGT | 0 |
| GGTGTCACGTGAGTCT | 1.3 |
| TTAAACACGTGCTTTT | 0.502 |
| GGCTACACGTGCAGGG | 0.837 |
| TTCTGCACGTGTATAT | 0.0837 |
| ATGGGCACGTGAGGCC | 0.293 |
| GGAAGCACGTGTCAGG | -0.335 |
| TTGGACACGTGGGCGT | -0.46 |
| GGCCGCACGTGGTTTG | 0 |
| TGTTGCACGTGTGGCG | 0.335 |
| GGGGGCACGTGTTTCG | -0.0837 |
| GTGCACACGTGAGTGT | 0.46 |
| GTGCTCACGTGTGATA | 1.42 |
| TGTGTCACGTGGGAAA | 0.126 |
| AGATGCACGTGGGTCG | -0.753 |
| GGATGCACGTGTGATC | 0.795 |
| AGCGTCACGTGGTAAG | 0.251 |
| GTAGACACGTGCGGGA | 0.167 |
| ATTGGCACGTGCTGCG | -1.26 |
| TTGATCACGTGGGTCT | 0 |
| GTTATCACGTGTCGTA | 0.962 |
| AGGGGCACGTGTGTTG | -0.669 |
| GTTTACACGTGGGGTA | 0.0418 |

| Sequence | relative binding free energy [kJ/mol] |
| --- | --- |
| CGGGACACGTGTGGAT | 0.335 |
| TTGAGCACGTGTGGAG | 0.167 |
| ATCGTCACGTGGGGAT | -0.209 |
| GCTTGCACGTGTTGGT | 0.544 |
| AAATACACGTGGTTTG | 0.167 |
| CGGGTCACGTGTGACG | 0.92 |
| GATTTCACGTGGTCTA | 1.51 |
| TTCAACACGTGTAGGT | -0.0418 |
| AGTCACACGTGGGATT | 0.377 |
| AAAGGCACGTGGCGTT | -0.293 |
| TGGTCCACGTGGAGTT | 0.167 |
| GGTAACACGTGGCAGT | 0.0837 |
| GATGACACGTGGTTAT | 0.335 |
| TCGGTCACGTGTAAGG | 0.544 |
| CTCGGCACGTGTTTGG | -0.167 |
| AATTGCACGTGTTTCG | 0.0418 |
| TTTTCCACGTGTTATT | 0.46 |
| TTGGACACGTGTCTTG | 0.418 |
| GTTTACACGTGCTGAG | 0.126 |
| CATGGCACGTGGTGTC | -0.837 |
| TTGTGCACGTGCATAG | -0.0837 |
| TAGGGCACGTGTGAAT | -0.126 |
| TGACGCACGTGGGGTG | -1.8 |

| Sequence | relative binding free energy [kJ/mol] |
| --- | --- |
| CTTGTCACGTGTGGGG | 0.879 |
| GTTATCACGTGGAGTA | 0.167 |
| GTGTACACGTGGAGCT | 0.377 |
| TTAGGCACGTGCGCAT | -1.05 |
| GGAATCACGTGTGCGG | 0.167 |
| TGCTGCACGTGATGAG | 0.0837 |
| GGCCTCACGTGGTGGG | -0.251 |
| TGAGCCACGTGAGTTT | 0.795 |
| TTCTTCACGTGGATTG | 0.753 |
| CGCGGCACGTGTAGGG | -0.0418 |
| GTTTGCACGTGTCGTT | 0.293 |
| TGATACACGTGATGGG | 0.879 |
| TATGACACGTGTATGG | -0.167 |
| CGATACACGTGGGTTA | -0.126 |
| TAGTTCACGTGGCGTA | 1.17 |
| TCCGACACGTGGGGGT | -0.669 |
| GGGATCACGTGATGCG | 1.34 |
| ATTAACACGTGTTAGT | -0.711 |
| TGGAGCACGTGTCGCG | -0.126 |
| ATTACCACGTGGGGTG | -0.711 |
| CCGGTCACGTGGTGGG | -0.0837 |
| GTGGGCACGTGATGTA | -0.0418 |
| AGTGGCACGTGCTGGC | -0.837 |

| Sequence | relative binding free energy [kJ/mol] |
| --- | --- |
| TGGACCACGTGGTTGG | 0 |
| TTTAACACGTGGTGAA | -0.209 |
| CGGGACACGTGTGGAG | 0.251 |
| AGGTACACGTGACGTT | 0.753 |
| TTGAACACGTGGGTAA | 0.293 |
| TGTTTCACGTGGCCAG | 1 |
| TTACTCACGTGTGGGT | 1.21 |
| TGAAGCACGTGATGAT | -0.126 |
| GCGAGCACGTGTAAGG | -0.0418 |
| GTTCTCACGTGGGGTG | 0.92 |
| GTGAACACGTGTTTTG | 0.0418 |
| TAAGTCACGTGTATCG | 0.669 |
| GCGTGCACGTGGGGGG | -0.669 |
| TGGCACACGTGAGTTG | 0.837 |
| GGACGCACGTGGGAGT | -0.795 |
| GGTGTCACGTGACATT | 0.544 |
| TTGTTCACGTGCATGG | 1.21 |
| AAATTCACGTGCGGGT | 1.09 |
| CTTGTCACGTGTTCTT | 0.209 |
| ATAGGCACGTGATTGG | -0.377 |
| GTTAGCACGTGGGAAA | -0.293 |
| GTTGTCACGTGAACGG | 0.92 |
| TGGTTCACGTGTGTTC | 1.3 |

| Sequence | relative binding free energy [kJ/mol] |
| --- | --- |
| CGAGGCACGTGGGAGC | -0.544 |
| TGGTGCACGTGTAGTG | 0.0418 |
| TATGACACGTGCTATT | 0.0418 |
| TTGGGCACGTGGCGGC | -0.837 |
| TTGTGCACGTGGCACG | -1.13 |
| CGAGTCACGTGGTGGA | 0.167 |
| AGGAGCACGTGGTGGT | -0.418 |
| ATCTTCACGTGTGTGC | 0.544 |
| TTTTGCACGTGGTAAG | -0.209 |
| GATATCACGTGGGAGT | -0.126 |
| GTAAGCACGTGCTAGT | -0.377 |
| AGCGGCACGTGTTGTA | -0.711 |
| ACTTTCACGTGTTTAG | 0.92 |
| TAGGCCACGTGTGTGA | -0.753 |
| AGTTACACGTGTGTAC | 0.837 |
| ATGGGCACGTGATGAG | -0.293 |
| AGTGGCACGTGCGTGA | -1.3 |
| TTATCCACGTGGTAAT | 0.628 |
| CTTGGCACGTGTTAGG | -0.251 |
| AGGTACACGTGTATTT | 0.209 |
| TATTACACGTGATTTT | 0.962 |
| ATAGCCACGTGTTGAG | -0.209 |
| TCGTTCACGTGGGATG | 0.879 |
